According to publication PMC10424213:
These are yes or no findings as the source states them, for the method shown. For some assays here: In cells and extracts the contact can be indirect. Some entries that bind do so weakly or less than the wild type. For some assays here: Where a sequence is shown, tags or fusion partners need not be part of it.

Key:
[1] = target: pIII-C F381C (pBAD-pIII-C) (fd phage) (UniProt P03661); experiment: cross-linking
[2] = target: TolR2-3 (residues 45-143 of TolR) fused to T18 or T25 (Escherichia coli) (UniProt P0ABV6); experiment: two-hybrid
[3] = target: pIII-N2 (residues 82-222 of pIII) fused to T18 or T25 (fd phage) (UniProt P03661); experiment: two-hybrid
[4] = target: T1, TolQ fused to the T25 domain of the adenylate cyclase (Escherichia coli) (UniProt P0ABU9); experiment: two-hybrid
T1 sequence: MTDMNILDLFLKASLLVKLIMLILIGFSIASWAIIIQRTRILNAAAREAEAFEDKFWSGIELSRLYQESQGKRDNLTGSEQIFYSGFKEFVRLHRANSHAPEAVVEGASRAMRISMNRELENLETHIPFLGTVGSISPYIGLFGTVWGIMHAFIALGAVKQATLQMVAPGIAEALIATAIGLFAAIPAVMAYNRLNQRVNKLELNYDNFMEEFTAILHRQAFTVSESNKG

[5] = target: pIII-C A382C (pBAD-pIII-C) (fd phage) (UniProt P03661); experiment: cross-linking
[6] = target: pIII-C F383C (pBAD-pIII-C) (fd phage) (UniProt P03661); experiment: cross-linking
[7] = target: T2, TolR fused to the T25 domain of the adenylate cyclase (Escherichia coli) (UniProt P0ABV6); experiment: two-hybrid
T2 sequence: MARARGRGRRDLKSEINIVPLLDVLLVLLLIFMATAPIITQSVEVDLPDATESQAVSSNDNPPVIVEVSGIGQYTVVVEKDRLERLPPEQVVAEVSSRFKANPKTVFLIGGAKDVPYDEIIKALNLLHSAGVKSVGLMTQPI

[8] = target: T3, pVI, full length, fused to the T18 or T25 domain of the adenylate cyclase (fd phage) (UniProt P69531); experiment: two-hybrid
T3 sequence: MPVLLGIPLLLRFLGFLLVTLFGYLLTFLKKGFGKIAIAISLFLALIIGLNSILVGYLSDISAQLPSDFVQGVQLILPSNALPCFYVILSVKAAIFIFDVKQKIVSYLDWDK

[9] = target: T4, ExbB, bacterial two-hybrid fusion (Escherichia coli) (UniProt P0ABU7); experiment: two-hybrid
T4 sequence: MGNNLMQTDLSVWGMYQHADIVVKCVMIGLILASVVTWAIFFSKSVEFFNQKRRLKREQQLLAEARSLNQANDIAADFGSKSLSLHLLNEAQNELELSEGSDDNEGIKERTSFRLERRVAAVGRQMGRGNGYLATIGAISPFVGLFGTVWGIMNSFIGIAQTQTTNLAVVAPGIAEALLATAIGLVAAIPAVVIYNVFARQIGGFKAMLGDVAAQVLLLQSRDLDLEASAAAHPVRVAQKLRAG

[10] = target: pIII, full length, fused to the T18 or T25 domain of the Bordetella pertussis adenylate cyclase (fd phage) (UniProt P03661); experiment: two-hybrid
[11] = target: T5, TolQ with a C-terminal hemagglutinin (HA) tag (Escherichia coli) (UniProt P0ABU9); experiment: co-IP
T5 sequence: T1 sequence

[12] = target: T5, TolQ with a C-terminal hemagglutinin (HA) tag (Escherichia coli); experiment: protease accessibility assay
[13] = target: pIII-N1 (residues 1-71 of the mature pIII protein) fused to T18 or T25 (fd phage) (UniProt P03661); experiment: two-hybrid

Q: With “pIII-C F381C (pBAD-pIII-C) (from UniProt P03661 274-424) (domain or fragment)” as the substance, how does the binding [1] read?
A: Its binding is “binds”.

Q: Which results are given for “pIII-N2 (residues 82-222 of pIII) fused to T18 or T25 (from UniProt P03661 100-240) (domain or fragment)”?
A: binding [2]: no binding; binding [3]: binds

Q: “pIII-286 (residues 286-406 of pIII) fused to T18 (from UniProt P03661 304-424) (domain or fragment)” was tested. Which binding [4] did it give?
A: Its binding is “no binding”.

Q: “pIII-C A382C (pBAD-pIII-C) (from UniProt P03661 274-424) (domain or fragment)” was tested. Which binding [5] did it give?
A: The binding was “binds”.

Q: How did the binding [6] turn out when “pIII-C F383C (pBAD-pIII-C) (from UniProt P03661 274-424) (domain or fragment)” was run?
A: The binding was “binds”.

Q: What does the source list for “pIII-C-T18 F381G-F383G (from UniProt P03661 274-424) (domain or fragment)”?
A: binding [4]: no binding; binding [7]: binds

Q: With “pIII-C-T18 A382L (from UniProt P03661 274-424) (domain or fragment)” as the substance, how does the binding [4] read?
A: The binding was “no binding”.

Q: And the binding [7]?
A: Its binding is “binds”.

Q: With “pIII, full length, fused to the T18 or T25 domain of the Bordetella pertussis adenylate cyclase (from UniProt P03661 1-424)” as the substance, how does the binding [8] read?
A: The binding was “binds”.

Q: What about the binding [9] of the same substance?
A: The binding was “binds”.

Q: And the binding [4]?
A: The binding was “binds”.

Q: And the binding [10]?
A: Its binding is “binds”.

Q: And the binding [7]?
A: Its binding is “binds”.

Q: For “pIII-275 (residues 275-406 of pIII) fused to T18 (from UniProt P03661 293-424) (domain or fragment)”, which binding [4] is on record?
A: Its binding is “binds”.

Q: And the binding [7]?
A: Its binding is “binds”.

Q: Which results are given for “native pIII protein, full length, produced in E. coli W3110 (from UniProt P03661 19-424)”?
A: binding [11]: binds; binding [12]: binds

Q: “pIII-C (residues 256-406 of pIII) fused to the T18 or T25 domain of the adenylate cyclase (from UniProt P03661 274-424) (domain or fragment)” was tested. Which binding [8] did it give?
A: The binding was “binds”.

Q: And the binding [4]?
A: Its binding is “binds”.

Q: What about the binding [7] of the same substance?
A: Its binding is “binds”.

Q: For “pIII-C deleted of its TMH (residues 256-378 of pIII) fused to T18 or T25 (from UniProt P03661 274-396) (domain or fragment)”, which binding [2] is on record?
A: Its binding is “no binding”.

Q: What does the source list for “pIII-N1 (residues 1-71 of the mature pIII protein) fused to T18 or T25 (from UniProt P03661 19-89) (domain or fragment)”?
A: binding [2]: no binding; binding [13]: no binding; binding [3]: binds
